In a collection of fitness landscapes (doi:10.1016/j.celrep.2020.107928):
In all, about 81,000 sequences were measured (“one-hybrid fitness for binding parS DNA”: median about -0.17, highest 2% from about 0.51 on). Some of the results follow.

B1: Caulobacter ParB omega fusion; a variant is named by its letters at X, in order, B8GW30 (parent)
chain: MESVVVGEPGMSEGRRGLGRGLSALLGEVDAAPAQAPGEQLGGSREAPIEILQRNPDQPRRTFREEDLEDLSNSIREKGVLQPILVRPSPDTAGEYQIVAGERAWRAAQRAGLKTVPIMVRELDDLAVLEIGIIENVQRADLNVLEEALSYKVLMEKFERTQENIAQTIGKSXSHVANXMRLLXLPDEVQSYLVSGELTAXHARAIAAAADPVALAKQIIEGGLSVRETEALARKAPNLSAGKSKGGRPPRVKDTDTQALESDLSSVLGLDVSIDHRGSTGTLTITYATLEQLDDLCNRLTRGI

Variants of: B1
Experiment: one-hybrid fitness for binding parS DNA (scaled: cognate 1, non-cognate 0); higher = stronger binding
Settings: with parS DNA site
Outline: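 Fitness here means the log change in variant-to-wild-type read ratio between plasmids sequenced before and after selection. That scale was set so cognate equals 1 and non-cognate equals 0. The selection was a bacterial one-hybrid screen of Caulobacter ParB libraries, four specificity codons randomised, in E. coli USO carrying a HIS3 reporter with the site 19 bp from the promoter, grown 48 hours at 37°C on M9-minus-histidine with 0.1 mM IPTG and 5 mM 3-AT.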

Row | Variant | one-hybrid fitness for binding parS DNA
1 | VKNS | ≤ 0.2
2 | WAPQ | ≤ 0.2
3 | AQSH | ≤ 0.2
4 | CFSS | ≤ 0.2
5 | RFWG | 0.744
6 | PNLG | ≤ 0.2
7 | EDAV | ≤ 0.2
8 | AMPV | ≤ 0.2
9 | PLQH | ≤ 0.2
10 | VVRM | ≤ 0.2
11 | PALR | ≤ 0.2
12 | AALS | ≤ 0.2
13 | EPWR | ≤ 0.2
14 | LTGT | ≤ 0.2
15 | SNRL | ≤ 0.2
16 | WQPV | ≤ 0.2
17 | PDAC | ≤ 0.2
18 | IVTL | ≤ 0.2
19 | DEKT | ≤ 0.2
20 | QTIR | ≤ 0.2
21 | DNPY | 0.219
22 | QAHS | ≤ 0.2
23 | NPSR | ≤ 0.2
24 | YGRR | ≤ 0.2
25 | QRCE | ≤ 0.2
26 | ALGF | ≤ 0.2

Row | Variant | one-hybrid fitness for binding parS DNA
27 | TWAT | ≤ 0.2
28 | EDKG | ≤ 0.2
29 | CCES | ≤ 0.2
30 | TTPS | ≤ 0.2
31 | PSHE | ≤ 0.2
32 | MGHR | ≤ 0.2
33 | ARQT | ≤ 0.2
34 | GTCC | ≤ 0.2
35 | QCYW | ≤ 0.2
36 | VSHY | ≤ 0.2
37 | DRLC | ≤ 0.2
38 | RPKV | ≤ 0.2
39 | YAMC | ≤ 0.2
40 | ELAC | ≤ 0.2
41 | RMAA | 0.59
42 | YWSR | ≤ 0.2
43 | ATFT | ≤ 0.2
44 | ISAN | ≤ 0.2
45 | MLGP | ≤ 0.2
46 | YFKC | ≤ 0.2
47 | RCKY | 0.716
48 | AWLV | ≤ 0.2
49 | IVKK | ≤ 0.2
50 | ICYT | ≤ 0.2
51 | DAIR | ≤ 0.2
52 | FYPK | ≤ 0.2

Row | Variant | one-hybrid fitness for binding parS DNA
53 | PAYK | ≤ 0.2
54 | RESA | ≤ 0.2
55 | SLMM | ≤ 0.2
56 | ARVW | ≤ 0.2
57 | GNHL | ≤ 0.2
58 | NGYI | ≤ 0.2
59 | LENG | ≤ 0.2
60 | CMPL | ≤ 0.2
61 | MRMS | ≤ 0.2
62 | YMLG | ≤ 0.2
63 | IPCT | ≤ 0.2
64 | QLRI | ≤ 0.2
65 | SSWR | ≤ 0.2
66 | PFKA | ≤ 0.2
67 | ANHT | ≤ 0.2
68 | PTQL | ≤ 0.2
69 | AWYS | ≤ 0.2
70 | CAVL | ≤ 0.2
71 | NNLS | ≤ 0.2
72 | AMYL | ≤ 0.2
73 | FRHL | ≤ 0.2
74 | TQQN | ≤ 0.2
75 | AAHM | ≤ 0.2
76 | DCEV | ≤ 0.2
77 | LWSG | ≤ 0.2
